± gives the standard deviation of the averaged measurements. Laboratory Escherichia coli strains with one amino-acid change in an essential protein, pooled on minimal glucose agar with carbenicillin or gentamicin at twice the control MIC (plus kanamycin and chloramphenicol for the plasmids), 48 h. Fold change of barcode share against drug-free plates; higher = less susceptible. Active = above 20 in both replicates (the paper's putatively resistant). '<' = one read or none on drug, '>' = one read or none on a drug-free plate. Shares are relative, so most strains fall below 1 when a few take over. Listed are strains with at least 15 reads on both drug-free plates, and hits; most hits rest on fewer reference reads. Replicate rank correlation about 0.5. Edits are read from barcodes.
B1: argH L339Q (protein)
chain: MALWGGRFTQAADQRFKQFNDSLRFDYRLAEQDIVGSVAWSKALVTVGVLTAEEQAQLEEALNVLLEDVRARPQQILESDAEDIHSWVEGKLIDKVGQLGKKLHTGRSRNDQVATDLKLWCKDTVSELLTANRQLQSALVETAQNNQDAVMPGYTHLQRAQPVTFAHWCLAYVEMLARDESRLQDALKRLDVSPLGCGALAGTAYEIDREQLAGWLGFASATRNSLDSVSDRDHVLELLSAAAIGMVHLSRFAEDLIFFNTGEAGFVELSDRVTSGSSLMPQKKNPDALELIRGKCGRVQGALTGMMMTLKGLPLAYNKDMQEDKEGLFDALDTWLDCQHMAALVLDGIQVKRPRCQEAAQQGYANATELADYLVAKGVPFREAHHIVGEAVVEAIRQGKPLEDLPLSELQKFSQVIDEDVYPILSLQSCLDKRAAKGGVSPQQVAQAIAFAQARLG
B2: argH L339D (protein)
chain: MALWGGRFTQAADQRFKQFNDSLRFDYRLAEQDIVGSVAWSKALVTVGVLTAEEQAQLEEALNVLLEDVRARPQQILESDAEDIHSWVEGKLIDKVGQLGKKLHTGRSRNDQVATDLKLWCKDTVSELLTANRQLQSALVETAQNNQDAVMPGYTHLQRAQPVTFAHWCLAYVEMLARDESRLQDALKRLDVSPLGCGALAGTAYEIDREQLAGWLGFASATRNSLDSVSDRDHVLELLSAAAIGMVHLSRFAEDLIFFNTGEAGFVELSDRVTSGSSLMPQKKNPDALELIRGKCGRVQGALTGMMMTLKGLPLAYNKDMQEDKEGLFDALDTWLDCDHMAALVLDGIQVKRPRCQEAAQQGYANATELADYLVAKGVPFREAHHIVGEAVVEAIRQGKPLEDLPLSELQKFSQVIDEDVYPILSLQSCLDKRAAKGGVSPQQVAQAIAFAQARLG
B3: hisS F269A (protein)
chain: MAKNIQAIRGMNDYLPGETAIWQRIEGTLKNVLGSYGYSEIRLPIVEQTPLFKRAIGEVTDVVEKEMYTFEDRNGDSLTLRPEGTAGCVRAGIEHGLLYNQEQRLWYIGPMFRHERPQKGRYRQFHQLGCEVFGLQGPDIDAELIMLTARWWRALGISEHVTLELNSIGSLEARANYRDALVAFLEQHKEKLDEDCKRRMYTNPLRVLDSKNPEVQALLNDAPALGDYLDEESREHFAGLCKLLESAGIAYTVNQRLVRGLDYYNRTVAEWVTNSLGSQGTVCAGGRYDGLVEQLGGRATPAVGFAMGLERLVLLVQAVNPEFKADPVVDIYLVASGADTQSAAMALAERLRDELPGVKLMTNHGGGNFKKQFARADKWGARVAVVLGESEVANGTAVVKDLRSGEQTAVAQDSVAAHLRTLLG
B4: hisS V132W (protein)
chain: MAKNIQAIRGMNDYLPGETAIWQRIEGTLKNVLGSYGYSEIRLPIVEQTPLFKRAIGEVTDVVEKEMYTFEDRNGDSLTLRPEGTAGCVRAGIEHGLLYNQEQRLWYIGPMFRHERPQKGRYRQFHQLGCEWFGLQGPDIDAELIMLTARWWRALGISEHVTLELNSIGSLEARANYRDALVAFLEQHKEKLDEDCKRRMYTNPLRVLDSKNPEVQALLNDAPALGDYLDEESREHFAGLCKLLESAGIAYTVNQRLVRGLDYYNRTVFEWVTNSLGSQGTVCAGGRYDGLVEQLGGRATPAVGFAMGLERLVLLVQAVNPEFKADPVVDIYLVASGADTQSAAMALAERLRDELPGVKLMTNHGGGNFKKQFARADKWGARVAVVLGESEVANGTAVVKDLRSGEQTAVAQDSVAAHLRTLLG
B5: hisS F269Q (protein)
chain: MAKNIQAIRGMNDYLPGETAIWQRIEGTLKNVLGSYGYSEIRLPIVEQTPLFKRAIGEVTDVVEKEMYTFEDRNGDSLTLRPEGTAGCVRAGIEHGLLYNQEQRLWYIGPMFRHERPQKGRYRQFHQLGCEVFGLQGPDIDAELIMLTARWWRALGISEHVTLELNSIGSLEARANYRDALVAFLEQHKEKLDEDCKRRMYTNPLRVLDSKNPEVQALLNDAPALGDYLDEESREHFAGLCKLLESAGIAYTVNQRLVRGLDYYNRTVQEWVTNSLGSQGTVCAGGRYDGLVEQLGGRATPAVGFAMGLERLVLLVQAVNPEFKADPVVDIYLVASGADTQSAAMALAERLRDELPGVKLMTNHGGGNFKKQFARADKWGARVAVVLGESEVANGTAVVKDLRSGEQTAVAQDSVAAHLRTLLG
B6: hisS F133P (protein)
chain: MAKNIQAIRGMNDYLPGETAIWQRIEGTLKNVLGSYGYSEIRLPIVEQTPLFKRAIGEVTDVVEKEMYTFEDRNGDSLTLRPEGTAGCVRAGIEHGLLYNQEQRLWYIGPMFRHERPQKGRYRQFHQLGCEVPGLQGPDIDAELIMLTARWWRALGISEHVTLELNSIGSLEARANYRDALVAFLEQHKEKLDEDCKRRMYTNPLRVLDSKNPEVQALLNDAPALGDYLDEESREHFAGLCKLLESAGIAYTVNQRLVRGLDYYNRTVFEWVTNSLGSQGTVCAGGRYDGLVEQLGGRATPAVGFAMGLERLVLLVQAVNPEFKADPVVDIYLVASGADTQSAAMALAERLRDELPGVKLMTNHGGGNFKKQFARADKWGARVAVVLGESEVANGTAVVKDLRSGEQTAVAQDSVAAHLRTLLG
B7: hisS F269W (protein)
chain: MAKNIQAIRGMNDYLPGETAIWQRIEGTLKNVLGSYGYSEIRLPIVEQTPLFKRAIGEVTDVVEKEMYTFEDRNGDSLTLRPEGTAGCVRAGIEHGLLYNQEQRLWYIGPMFRHERPQKGRYRQFHQLGCEVFGLQGPDIDAELIMLTARWWRALGISEHVTLELNSIGSLEARANYRDALVAFLEQHKEKLDEDCKRRMYTNPLRVLDSKNPEVQALLNDAPALGDYLDEESREHFAGLCKLLESAGIAYTVNQRLVRGLDYYNRTVWEWVTNSLGSQGTVCAGGRYDGLVEQLGGRATPAVGFAMGLERLVLLVQAVNPEFKADPVVDIYLVASGADTQSAAMALAERLRDELPGVKLMTNHGGGNFKKQFARADKWGARVAVVLGESEVANGTAVVKDLRSGEQTAVAQDSVAAHLRTLLG
B8: hisS V132A (protein)
chain: MAKNIQAIRGMNDYLPGETAIWQRIEGTLKNVLGSYGYSEIRLPIVEQTPLFKRAIGEVTDVVEKEMYTFEDRNGDSLTLRPEGTAGCVRAGIEHGLLYNQEQRLWYIGPMFRHERPQKGRYRQFHQLGCEAFGLQGPDIDAELIMLTARWWRALGISEHVTLELNSIGSLEARANYRDALVAFLEQHKEKLDEDCKRRMYTNPLRVLDSKNPEVQALLNDAPALGDYLDEESREHFAGLCKLLESAGIAYTVNQRLVRGLDYYNRTVFEWVTNSLGSQGTVCAGGRYDGLVEQLGGRATPAVGFAMGLERLVLLVQAVNPEFKADPVVDIYLVASGADTQSAAMALAERLRDELPGVKLMTNHGGGNFKKQFARADKWGARVAVVLGESEVANGTAVVKDLRSGEQTAVAQDSVAAHLRTLLG
B9: hisS F133W (protein)
chain: MAKNIQAIRGMNDYLPGETAIWQRIEGTLKNVLGSYGYSEIRLPIVEQTPLFKRAIGEVTDVVEKEMYTFEDRNGDSLTLRPEGTAGCVRAGIEHGLLYNQEQRLWYIGPMFRHERPQKGRYRQFHQLGCEVWGLQGPDIDAELIMLTARWWRALGISEHVTLELNSIGSLEARANYRDALVAFLEQHKEKLDEDCKRRMYTNPLRVLDSKNPEVQALLNDAPALGDYLDEESREHFAGLCKLLESAGIAYTVNQRLVRGLDYYNRTVFEWVTNSLGSQGTVCAGGRYDGLVEQLGGRATPAVGFAMGLERLVLLVQAVNPEFKADPVVDIYLVASGADTQSAAMALAERLRDELPGVKLMTNHGGGNFKKQFARADKWGARVAVVLGESEVANGTAVVKDLRSGEQTAVAQDSVAAHLRTLLG
B10: hisS F133Q (protein)
chain: MAKNIQAIRGMNDYLPGETAIWQRIEGTLKNVLGSYGYSEIRLPIVEQTPLFKRAIGEVTDVVEKEMYTFEDRNGDSLTLRPEGTAGCVRAGIEHGLLYNQEQRLWYIGPMFRHERPQKGRYRQFHQLGCEVQGLQGPDIDAELIMLTARWWRALGISEHVTLELNSIGSLEARANYRDALVAFLEQHKEKLDEDCKRRMYTNPLRVLDSKNPEVQALLNDAPALGDYLDEESREHFAGLCKLLESAGIAYTVNQRLVRGLDYYNRTVFEWVTNSLGSQGTVCAGGRYDGLVEQLGGRATPAVGFAMGLERLVLLVQAVNPEFKADPVVDIYLVASGADTQSAAMALAERLRDELPGVKLMTNHGGGNFKKQFARADKWGARVAVVLGESEVANGTAVVKDLRSGEQTAVAQDSVAAHLRTLLG
B11: hisS F133A (protein)
chain: MAKNIQAIRGMNDYLPGETAIWQRIEGTLKNVLGSYGYSEIRLPIVEQTPLFKRAIGEVTDVVEKEMYTFEDRNGDSLTLRPEGTAGCVRAGIEHGLLYNQEQRLWYIGPMFRHERPQKGRYRQFHQLGCEVAGLQGPDIDAELIMLTARWWRALGISEHVTLELNSIGSLEARANYRDALVAFLEQHKEKLDEDCKRRMYTNPLRVLDSKNPEVQALLNDAPALGDYLDEESREHFAGLCKLLESAGIAYTVNQRLVRGLDYYNRTVFEWVTNSLGSQGTVCAGGRYDGLVEQLGGRATPAVGFAMGLERLVLLVQAVNPEFKADPVVDIYLVASGADTQSAAMALAERLRDELPGVKLMTNHGGGNFKKQFARADKWGARVAVVLGESEVANGTAVVKDLRSGEQTAVAQDSVAAHLRTLLG

molecular target: Escherichia coli (laboratory strain); assay: barcode share on antibiotic plates over drug-free plates; higher = less susceptible; settings: antibiotic: carbenicillin; 2× MIC (3.1 µg/mL)
Experimental: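 A pool of E. coli strains, each edited to carry one amino-acid change in an essential protein, was grown for 48 h on minimal glucose agar with or without antibiotic; strain barcodes were sequenced; mean of two replicates.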

| Protein | fold change of barcode share |
| --- | --- |
| B1 | 0.443 ± 0.09 |
| B2 | 39.3 [active] |
| B3 | 0.368 ± 0.01 |
| B4 | 0.428 ± 0.12 |
| B5 | 0.363 ± 0.11 |
| B6 | 0.419 ± 0.17 |
| B7 | 0.255 ± 0.024 |
| B8 | 0.249 ± 0.018 |
| B9 | 0.248 ± 0.082 |
| B10 | 0.39 ± 0.13 |
| B11 | 0.252 ± 0.047 |

same assay, conditions: antibiotic: gentamicin; 2× MIC (MIC 0.45 µg/mL)

| Protein | fold change of barcode share |
| --- | --- |
| B1 | 0.00817 ± 0.0062 |
| B3 | < 0.0037 |
| B4 | 0.00654 ± 0.0033 |
| B5 | 0.0059 ± 0.00013 |
| B7 | < 0.0054 |
| B8 | 0.00312 ± 0.0014 |
| B9 | 0.00445 ± 0.0025 |
| B10 | < 0.00994 |
| B11 | 0.00998 ± 0.001 |

From the supplement of paper PMC11876631
